Where “and” joins values, the source holds several entries; their conditions need not be identical. Equal entries are not always repeated. Among all 350,000 compounds or so, about 31,000 (8.9%) were called active. Inconclusive results, whose numbers are uncertain, are shown with a selection of clear calls. Calls come from the whole dose curve; as a rule, active = well fitted inhibition curve with a large enough effect; inconclusive = small, poorly fitted or top-dose-only effect; inactive = no such curve, though single readings can be large or run the other way. Potencies of inconclusive entries are doubtful fits and often do not repeat.
Each compound was assayed against Histone-lysine N-methyltransferase EHMT2 (Homo sapiens) (UniProt Q96KQ7) (assay: qHTS Assay for Inhibitors of Histone Lysine Methyltransferase G9a). Conditions: G9a H3K9 monomethylation, AlphaScreen, 2 h; activity, negative = inhibition: at 59 µM (top of the series) unless noted.
Procedure, shortened: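 Readings reflect AlphaScreen signal from monomethyl-H3K9 antibody detection. HMT at 20 nM; substrate b-H3K9 500 nM; cofactor SAM 20 uM; 2 h RT reaction; compounds tested as titrations in qHTS with 15 min preincubation.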
% is set by controls: 0 for no effect and ±100 for the full control effect; potency is the fitted concentration of half-maximal effect; tags give direction and shape of the fitted curve.
Note: nearly all actives have a fitted effect of over 75% in size.

Sequence of UniProt Q96KQ7 (Q96KQ7 whole entry, looked up): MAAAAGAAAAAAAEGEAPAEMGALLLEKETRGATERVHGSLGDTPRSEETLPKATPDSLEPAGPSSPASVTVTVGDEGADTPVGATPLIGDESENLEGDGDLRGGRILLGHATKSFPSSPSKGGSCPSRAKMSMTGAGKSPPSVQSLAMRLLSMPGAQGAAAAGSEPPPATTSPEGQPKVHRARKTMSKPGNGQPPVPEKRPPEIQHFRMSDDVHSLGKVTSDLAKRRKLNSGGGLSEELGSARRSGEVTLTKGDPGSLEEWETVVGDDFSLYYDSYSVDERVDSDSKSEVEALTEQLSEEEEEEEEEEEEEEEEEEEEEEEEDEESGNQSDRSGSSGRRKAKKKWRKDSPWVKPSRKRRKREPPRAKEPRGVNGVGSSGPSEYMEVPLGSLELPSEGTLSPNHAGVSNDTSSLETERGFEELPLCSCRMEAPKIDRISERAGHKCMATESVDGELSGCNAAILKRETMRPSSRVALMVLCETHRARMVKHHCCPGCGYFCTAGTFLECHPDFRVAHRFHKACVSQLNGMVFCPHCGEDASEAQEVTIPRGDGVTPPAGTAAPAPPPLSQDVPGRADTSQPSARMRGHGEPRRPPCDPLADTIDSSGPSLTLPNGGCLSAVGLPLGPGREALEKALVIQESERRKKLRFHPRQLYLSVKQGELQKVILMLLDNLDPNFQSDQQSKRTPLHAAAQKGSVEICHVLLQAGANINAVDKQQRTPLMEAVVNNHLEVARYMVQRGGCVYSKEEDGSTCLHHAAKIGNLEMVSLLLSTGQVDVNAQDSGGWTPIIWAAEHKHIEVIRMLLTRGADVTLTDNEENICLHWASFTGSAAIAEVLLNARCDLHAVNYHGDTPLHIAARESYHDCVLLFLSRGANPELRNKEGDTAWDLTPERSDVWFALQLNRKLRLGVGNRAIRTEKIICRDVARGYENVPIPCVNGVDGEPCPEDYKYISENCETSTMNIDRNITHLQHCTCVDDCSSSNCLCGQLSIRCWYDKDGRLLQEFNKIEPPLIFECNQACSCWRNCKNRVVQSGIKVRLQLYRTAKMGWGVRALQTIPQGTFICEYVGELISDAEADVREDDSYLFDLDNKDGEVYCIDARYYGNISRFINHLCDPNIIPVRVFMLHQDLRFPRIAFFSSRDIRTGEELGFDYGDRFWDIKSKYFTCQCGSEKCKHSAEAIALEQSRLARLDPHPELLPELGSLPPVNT

Structure (SMILES)	Potency	activity, negative = inhibition
COc1ccccc1N1CCN(C(c2cccs2)C(C)NC(=O)c2cccnc2)CC1 (configuration not stated)	inconclusive: 79.4 µM [inhibitor, partial curve, poor fit]	
C=CCn1c(SCC(=O)Nc2ccc(C)cc2C)nnc1-c1cccnc1	inactive	
CCc1ccc(C2C(C#N)=C(N)Oc3cc(N)ccc32)cc1 (configuration not stated)	inconclusive: 89.1 µM [inhibitor, single point]	
CC(C)(C)N(Cc1ccccc1)C(=O)COC(=O)C1CCN(c2ccc(C(F)(F)F)cn2)CC1	inconclusive: 5.01 µM [inhibitor, single point]	
O=C(O)c1ccc(Nc2ncc([N+](=O)[O-])cc2[N+](=O)[O-])cc1	active: 44.7 µM	
COc1ccc(C(C[N+](=O)[O-])c2c(-c3ccccc3)cc3ccccn23)cc1 (configuration not stated)	inconclusive: 31.6 µM [inhibitor, partial curve, poor fit]	
Cc1ccc(/C=N/NC(=S)N2CCOCC2)cc1	active: 28.2 µM	
Cc1cc(N)c(-n2cc3c(=O)n(C)c(=O)n(C)c3c2)cc1C		inconclusive: -74% [inhibitor]
CCCc1nn2c(=O)cc(COC(=O)CNC(=O)COc3ccc(C)cc3)nc2s1	inactive	
O=C1c2ccccc2C(=O)N1Cc1nc(-c2ccncc2)no1	inconclusive: 89.1 µM [inhibitor, partial curve, poor fit]	
CCOC(=O)C(=O)NNc1ccc(C)cc1	inconclusive: 2 µM [inhibitor, partial curve, poor fit]	
COc1ccccc1CNC(=O)C(C)NS(=O)(=O)c1ccccc1 (configuration not stated)		inconclusive: -79.5% [inhibitor]
O=S(=O)(c1ccc(NC(=S)N/N=C/c2c3ccccc3cc3ccccc23)cc1)N1CCOCC1	inactive	
COc1ccc2[nH]cc(CCNc3cc(-c4cccc(C#N)c4)ncn3)c2c1		inactive: -29.4% [at 0.501 µM]
c1ccc(C2=Nc3ccccc3OC2)cc1	inconclusive: 28.2 µM [inhibitor, single point]	
CCOC(=O)c1sc(NC(=O)c2c(-c3ccccc3)c(-c3ccccc3)nn(C)c2=O)nc1C	inconclusive: 28.2 µM [inhibitor, single point]	
CN(C)/C=N/c1ncn(-c2ncc(C(F)(F)F)cc2Cl)n1	inactive	
CC1CCN(c2ccc(-c3cccc(NS(=O)(=O)c4ccc(F)cc4F)c3)nn2)CC1	inactive	
C#CCn1c(O)c(N=NC(=O)C(O)c2ccccc2)c2ccccc21 (configuration not stated)	inconclusive: 15.8 µM [inhibitor, partial curve, poor fit]	
O=C1CC(Sc2nnc(-c3ccccc3O)o2)C(=O)N1c1ccccc1 (configuration not stated)	active: 7.94 µM	
Cc1[nH]c(=O)c(C#N)cc1-c1ccc2nccn2c1	active: 25.1 µM and active: 12.6 µM	
Cc1sc2nc(C3CC3)nc(SCC(=O)N3CC(=O)Nc4ccccc43)c2c1C	inconclusive: 79.4 µM [inhibitor, single point]	
COc1ccc(NC(=O)C2=C(C)Nc3nc(SCc4ccc(Cl)cc4)nn3C2c2cccc(OC)c2OC)cc1 (configuration not stated)	inactive	
CN(c1ccccc1)S(=O)(=O)c1cccc(C(=O)Nc2ccc(N3CCOCC3)cc2)c1	active: 56.2 µM	

Structure (SMILES)	Potency	activity, negative = inhibition
COc1ccc(C(=O)Nn2c(C)ccc2C)cc1OC	inconclusive: 31.6 µM [inhibitor, single point]	
CCOc1ccc(CCNC(=O)COC(=O)Cn2nc(C)c([N+](=O)[O-])c2C)cc1OCC	inconclusive: 35.5 µM [inhibitor, single point]	
Cc1nc2ccc(NC(=S)NC(C)C)cc2nc1C	inconclusive: 39.8 µM [inhibitor, single point]	
Cc1ccc(NC(=O)/C=C/c2ccccc2Cl)cc1Cl	inactive	
CN(C(=O)c1ccc2c(c1)C(=O)N(CCC1=CCCCC1)C2=O)C1CCCCC1	inconclusive: 44.7 µM [inhibitor, partial curve, poor fit]	
O=C(NCCCOc1cccc(CN2CCCCC2)c1)c1ccc(Cl)c(Cl)c1	active: 10 µM	
Cc1cccc(NC(=S)NCCc2ccccc2)n1	inactive	
CC(=O)NC12CC3CC(C1)CC(C(=O)N1CCN(S(=O)(=O)c4ccc(C(C)C)cc4)CC1)(C3)C2	inactive	
Cc1ccc(NC(=O)Cc2nc(CCl)cs2)cc1	active: 8.91 µM	
Cc1ccc(NC(=O)CCC(=O)NNC(=S)Nc2ccc(F)cc2)c(C)c1	inconclusive: 39.8 µM [inhibitor, single point]	
O=C(COC(=O)Cc1ccc(S(=O)(=O)N2CCOCC2)s1)NCc1ccccc1	inconclusive: 50.1 µM [inhibitor, partial curve]	
CCc1ccc(Nc2nc3ccccc3nc2NS(=O)(=O)c2ccccc2)cc1	inactive	
c1ccc(-c2cc3n(c2)CCc2ccccc2-3)cc1	active: 3.16 µM	
O=C(CC1C(=O)NCCN1C(=O)Nc1ccc(Cl)cc1)Nc1ccc(F)cc1 (configuration not stated)	inactive	
COc1ccc(CCNc2ccc(C)cc2)cc1	inconclusive: 63.1 µM [inhibitor, partial curve, poor fit]	
CCN(CC)CCn1c2ccccc2c2cnc(N)c(C#N)c21	active: 35.5 µM	
CSc1cccc(NC(=O)N2CCc3ccc(NC(=O)c4ccccn4)cc3C2)c1	inconclusive: 89.1 µM [inhibitor, single point]	
O=C(OCC(=O)N1CCN(c2ccccc2)CC1)c1ccco1	inconclusive: 1.26 µM [inhibitor, partial curve, poor fit]	
Cc1ccc(NC(=O)CCc2c[nH]c3ccccc23)nc1	inactive	
COc1cc(CNCc2ccccc2)ccc1OCC(O)c1ccccc1 (configuration not stated)	active: 11.2 µM	
O=P(O)(CCc1ccccn1)CN1CCOCC1	inconclusive: 56.2 µM [inhibitor, partial curve, poor fit]	
CCCOc1ccccc1-n1sc2c(c1=S)-c1cc(OC)cc3c1N(C(=O)C3=O)C2(C)C	inconclusive: 2.24 µM [inhibitor, full curve, poor fit]	
Cc1cnc(C(=O)OCC(=O)NC23CC4CC(CC(C4)C2)C3)cn1	inactive	
C/C(=N\NC(=O)c1ccc(O)cc1)c1cccc(NC(=O)c2ccccc2C)c1	inactive	

Structure (SMILES)	Potency	activity, negative = inhibition
O=C(CCN1C(=O)c2ccccc2C1=O)N1CCN(C2c3ccccc3-c3ccccc32)CC1	inconclusive: 22.4 µM [inhibitor, single point]	
CCc1ccc(CN(C)CC(=O)Nc2ccc(S(=O)(=O)N3CCOCC3)cc2)cc1		inactive: -12.3% [at 12.7 µM]
O=C(CCC(=O)N1CCN(S(=O)(=O)c2ccccc2)CC1)NC1CCCc2ccccc21 (configuration not stated)	inactive	
Cc1ccc2c(CC(=O)OCC(=O)Nc3ccc(Cl)cn3)coc2c1	inconclusive: 0.891 µM [inhibitor, full curve, poor fit]	
O=[N+]([O-])c1ccc(O)c(/C=N/Nc2ccccc2Cl)c1	active: 6.31 µM	
O=C(NCCCN1CCCCC1)C1CCN(S(=O)(=O)N2CCC3(CC2)OCCO3)CC1	inactive	
CCc1c(C)sc2c1CCN(Cc1ccccc1F)C2c1ccccc1 (configuration not stated)	inconclusive: 25.1 µM [inhibitor, single point]	
CC1(O)CC(c2ccc(Cl)cc2)=NN1C(=O)c1ccc([N+](=O)[O-])cc1 (configuration not stated)	inconclusive: 35.5 µM [inhibitor, partial curve]	
Cc1nn(-c2ccccc2)c(Cl)c1/C=N/Nc1nncc(=O)[nH]1		inconclusive: -75.5% [inhibitor] [at 12.7 µM]
CC(C)CNC(=O)NC(=O)COC(=O)Cn1cnc2ccccc2c1=O	inconclusive: 79.4 µM [inhibitor, partial curve, poor fit]	
O=C(Nc1ccncc1)c1ccc(Cl)c(S(=O)(=O)N2CCc3ccccc32)c1	inconclusive: 39.8 µM [inhibitor, partial curve]	
CC1(C)SC2c3ccccc3C(=O)N2[C@@H]1C(=O)O (some centres not stated)	inactive	
Cc1ccccc1OCC(=O)Nc1ccccc1-c1ccccc1	inconclusive: 56.2 µM [inhibitor, partial curve, poor fit]	
CCCCN(CC)CCNC(=O)CCC(=O)Nc1ccc2nc(N3CCN(C)CC3)cc(C)c2c1	inconclusive: 35.5 µM [inhibitor, single point]	
O=C(CCSCc1ccc(Cl)cc1)NCc1cccs1	inactive	
O=C(CNC(=O)c1ccco1)N=Nc1c(O)[nH]c2ccc([N+](=O)[O-])cc12	inconclusive: 89.1 µM [inhibitor, single point]	
FC(F)(F)c1cc(-c2ccco2)nc(NCc2ccco2)n1	inconclusive: 39.8 µM [inhibitor, single point]	
NC(=O)C1CCN(C(=O)c2ccc(Cl)c(S(=O)(=O)NCc3ccco3)c2)CC1	inconclusive: 14.1 µM [inhibitor, single point]	
C=CCn1c(COc2ccccc2)nnc1SCc1ccc(C#N)cc1	inactive	
CC(C)CN(C(=O)CSc1nnc2c(Cl)cc(C(F)(F)F)cn12)C1CCS(=O)(=O)C1 (configuration not stated)	inactive	
Cc1ccc(C(=O)NC2CC3CCCC(C2)N3C(=S)NCc2ccco2)cc1 (configuration not stated)	inconclusive: 50.1 µM [inhibitor, partial curve]	
C=CCn1cnc2c(nnn2-c2ccc(C)c(C)c2)c1=O	inactive	
N#Cc1ccc(C(=O)N(Cc2ccco2)c2c(N)n(Cc3ccccc3)c(=O)[nH]c2=O)cc1	inconclusive: 25.1 µM [inhibitor, partial curve, poor fit]	
Cc1cc(C)c(OCC(=O)OCC(=O)N(C)C2CCS(=O)(=O)C2)c(C)c1 (configuration not stated)		inactive: 3.1% [at 0.501 µM]
